Activity change, negative = inhibition data for 30 compounds are collected here from PubChem BioAssay AID1745853 (National Center for Advancing Translational Sciences (NCATS), 2022).

What all share (assay): Primary Screen for Target Class Profiling of Small Molecule Inhibitors of Methyltransferases
Experiment [1] addresses Glycine N-methyltransferase (Homo sapiens) (UniProt Q14749). To be noted: purified enzyme, MTase-Glo SAH luminescence; measured here: GNMT inhibition; at 40 µM; stronger effect = lower value. In outline:
(§1)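 Each enzyme was reacted with SAM and its substrate, with compounds tested once at 40 uM; SAH formed was read by MTase-Glo luminescence.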

The target of experiment [2] is Guanidinoacetate N-methyltransferase (Homo sapiens) (UniProt Q14353). To be noted: purified enzyme, MTase-Glo SAH luminescence; measured here: GAMT inhibition; at 40 µM; stronger effect = lower value. The method, boiled down: as §1
The target in experiment [3] is Histamine N-methyltransferase (Homo sapiens) (UniProt P50135). To be noted: purified enzyme, MTase-Glo SAH luminescence; measured here: HNMT inhibition; at 40 µM; stronger effect = lower value. In outline: as §1
For experiment [4], the target named is Nicotinamide N-methyltransferase (Homo sapiens) (UniProt P40261). Particulars: purified enzyme, MTase-Glo SAH luminescence; measured here: NNMT inhibition; at 40 µM; stronger effect = lower value. In outline: as §1
The target in experiment [5] is Phenylethanolamine N-methyltransferase (Homo sapiens) (UniProt P11086). Particulars: purified enzyme, MTase-Glo SAH luminescence; measured here: PNMT inhibition; at 40 µM; stronger effect = lower value. The method, boiled down:
as §1

Each structure is given as a SMILES string. This is one part of the list. The main result of the screen is listed elsewhere. These columns were measured beside it and carry no call.
% is scaled to controls: 0 for no effect and ±100 for the full control effect.

In the case of `CC1=C(C(=O)Nc2cc3cn[nH]c3cc2F)C(c2ccc(Cl)cc2F)N=C(c2ccnc(Cl)c2)N1` (stereo not drawn), the activity change, negative = inhibition was -5.02% in experiment [1]; 2.44% in experiment [2]; 4.01% in experiment [3]; -28.3% in experiment [4]; -25% in experiment [5].

In the case of `Cc1nnc(-c2cc(-c3ccccc3Oc3ccccc3)ccn2)n1C`, the activity change, negative = inhibition in experiment [1] is -14.2%; in experiment [2], -7.16%; in experiment [3], -13.9%; in experiment [4] it was -29.3%; in experiment [5] it was -12.9%.

On to `CCC(C(=O)NCc1ccco1)n1ccc2cc(S(=O)(=O)N3CCCCC3)ccc21` (stereo not drawn), for which the activity change, negative = inhibition in experiment [1] is -3.54%; in experiment [2] it was 4.26%; in experiment [3] it was 0.454%; in experiment [4] it was -1.59%; in experiment [5] it was -0.334%.

On to `CC1CCCCN1CCCN1C(=O)c2cc3occc3n2CC1(C)C(=O)NC1CCCCCCC1` (stereo not drawn), for which the activity change, negative = inhibition in experiment [1] was 2.65%; in experiment [2], -0.069%; in experiment [3], 0.269%; in experiment [4], 0.101%; in experiment [5], 2.3%.

For the compound `Cc1ccc2c(Nc3ccc(Cl)cc3)nccc2c1Nc1ncccc1-c1ncnc2nc[nH]c12`, the activity change, negative = inhibition in experiment [1] is 6.72%; in experiment [2], 2.57%; in experiment [3], 11.9%; in experiment [4], -19.4%; in experiment [5], 5.17%.

As to `CCN(CC)C(=O)CC[C@@H]1CNC(=O)[C@@H]2C[C@H](NC(=O)Nc3ccsc3)CN12`, the activity change, negative = inhibition in experiment [1] was -6.33%; in experiment [2] it was -8%; in experiment [3], -2.43%; in experiment [4], -7.87%; in experiment [5], -5.22%.

Turning to `COC(=O)C1=CO[C@@H](O[C@@H]2O[C@H](CO)[C@@H](O)[C@H](O)[C@H]2O)[C@@H]2C(C)CC(=O)[C@]12O` (stereo partly drawn), the activity change, negative = inhibition in experiment [1] is -3.52%; in experiment [2] it was -11%; in experiment [3] it was 1.11%; in experiment [4] it was -17.7%; in experiment [5], -2.91%.

For the compound `O=C1CC(c2noc(-c3cccs3)n2)CN1C1CCCCC1` (stereo not drawn), the activity change, negative = inhibition in experiment [1] is -0.132%; in experiment [2] it was 4.11%; in experiment [3], -3.02%; in experiment [4], -5.58%; in experiment [5] it was -2.32%.

For `COc1ccc(NC(=O)CSc2nnc3n(CC(C)C)c(=O)c4ccccc4n23)cc1`, the activity change, negative = inhibition is -7.05% in experiment [1]; 0% in experiment [2]; 13.8% in experiment [3]; 1.52% in experiment [4]; 4.22% in experiment [5].

In the case of `CC(C)(C)c1ccc(S(=O)(=O)Nc2ccc(-n3ccnc3)cc2)cc1`, the activity change, negative = inhibition was 3.24% in experiment [2], -33% in experiment [4] and -9.72% in experiment [5].

For `CC(C)CCN1C(=O)c2ccc(-c3ccco3)n2CC1(C)C(=O)NC1CCCC1` (stereo not drawn), the activity change, negative = inhibition was -12.3% in experiment [1]; -1.99% in experiment [2]; 4.23% in experiment [3]; -11.5% in experiment [4]; -6.62% in experiment [5].

Regarding `C[C@@H](N)C(=O)N1CCC2(CC1)CC(=O)N(Cc1cc(F)cc(F)c1)C2`, the activity change, negative = inhibition in experiment [1] was -0.996%; in experiment [2], -2.85%; in experiment [3] it was 1.01%; in experiment [4] it was 3.35%; in experiment [5] it was -3.51%.

`Cc1cc(-c2nc(-c3ccc(OC(F)(F)F)cc3)no2)nn1Cc1ccnc(N2CCN(C3CC3)CC2)c1`: the activity change, negative = inhibition in experiment [1] is -3.63%; in experiment [2], -8.78%; in experiment [3] it was 7.36%; in experiment [4], -23.2%; in experiment [5] it was -3.88%.

Take `O=C(CSc1nnc2n(CCc3ccccc3)c(=O)c3ccccc3n12)Nc1ccc(F)cc1F`: the activity change, negative = inhibition in experiment [1] is -2.75%; in experiment [2] it was 0%; in experiment [3] it was 9.04%; in experiment [4], -5.25%; in experiment [5], 4.38%.

`Cn1nc2n(c1=O)CCC(NC(=O)c1n[nH]c3c1CC(C(C)(C)C)CC3)CC2` (stereo not drawn): the activity change, negative = inhibition in experiment [1] was -1.96%; in experiment [2], -3.03%; in experiment [3], -2.24%; in experiment [4], -13.6%; in experiment [5] it was -1.04%.

With `CO[C@H]1[C@@H](O)[C@H](O[C@H]2CC[C@@]3(C)C(CCC4C3CC[C@]35COC6(COC(=O)C6)C3CCC45O)C2)O[C@@H](C)[C@@H]1OC1OC(CO)C(OC2OC(CO)C(O)C(O)C2O)C(O)C1O` (stereo partly drawn), the activity change, negative = inhibition is 1.49% in experiment [1]; -1.97% in experiment [2]; 13.3% in experiment [3]; -12.3% in experiment [4]; -8.65% in experiment [5].

Consider `CCc1ccc(N2C(=O)c3cc(C(=O)OC)nn3CC2(C)C(=O)NC2CCCCCC2)cc1` (stereo not drawn), for which the activity change, negative = inhibition in experiment [1] was -1.99%; in experiment [2], 0%; in experiment [3] it was 5.16%; in experiment [4], -3.42%; in experiment [5] it was -3.93%.

On to `O=C(NC1CCN(Cc2ccccc2)CC1)c1cccc2c1CCN2C(=O)c1ccccc1`, for which the activity change, negative = inhibition is -5.68% in experiment [1]; -0.382% in experiment [2]; -37.1% in experiment [3]; -11.8% in experiment [4]; -1.6% in experiment [5].

`CCc1cccc(CC)c1NC(=O)c1nn(C)c2c1CCc1cnc(Nc3ccc(C(=O)NC4CCN(C)CC4)cc3OC(F)(F)F)nc1-2`: the activity change, negative = inhibition in experiment [1] is 0.141%; in experiment [2], 9.4%; in experiment [3], 1.82%; in experiment [4] it was -12.5%; in experiment [5] it was -3.64%.

For `C#CCN(Cc1cc2c(=O)[nH]c(C)nc2cc1Br)c1ccc(C(=O)NCc2cccnc2)cc1`, the activity change, negative = inhibition in experiment [1] was -11.6%; in experiment [2] it was 5.3%; in experiment [3], -4.09%; in experiment [4], -8.84%; in experiment [5], -10.2%.

In the case of `COCC1CCCN(C(=O)c2cc(Cn3c(C)nc4ccccc43)[nH]n2)C1` (stereo not drawn), the activity change, negative = inhibition in experiment [1] was -7.39%; in experiment [2], -7.51%; in experiment [3] it was -4.63%; in experiment [4], -15.9%; in experiment [5], -11.8%.

For `COc1cc(OC)cc(-c2onc(C)c2C(=O)NCCC(c2ccccc2)c2ccccc2)c1`, the activity change, negative = inhibition in experiment [1] was -4.32%; in experiment [2] it was -8.94%; in experiment [3] it was -4.29%; in experiment [4], -13%; in experiment [5] it was -20.6%.

Take `C=C1CC[C@@H]2[C@](C)(CO)[C@H](O)CC[C@@]2(C)[C@@H]1/C=C/C1=CCOC1=O`: the activity change, negative = inhibition in experiment [1] is 2.56%; in experiment [2], 1.65%; in experiment [3] it was 8.98%; in experiment [4], -14.5%; in experiment [5], -6.19%.

As for `O=C(C1CCc2nnc(-c3cccc(C(F)(F)F)c3)n21)N1CCCCC1` (stereo not drawn), the activity change, negative = inhibition is 0.746% in experiment [1]; -1.66% in experiment [2]; 0.167% in experiment [3]; -1.23% in experiment [4]; 1.15% in experiment [5].

Regarding `CC(=O)N1CCN(Cc2ccccc2-c2cccnc2)CC1`, the activity change, negative = inhibition in experiment [1] was -2.38%; in experiment [2], 1.35%; in experiment [3] it was -0.948%; in experiment [4], -7.32%; in experiment [5], 9.35%.

For `CC1(C(=O)NC2CCCCC2)Cn2nc(-c3cccs3)cc2C(=O)N1CCCc1ccccc1` (stereo not drawn), the activity change, negative = inhibition in experiment [1] is 0.837%; in experiment [2], 0%; in experiment [3], 1.46%; in experiment [4] it was -9.28%; in experiment [5], 1.38%.

`COc1ccc(N2C(=O)c3cc4ccccc4n3CC2(C)C(=O)NC2CCCCC2)cc1OC` (stereo not drawn): the activity change, negative = inhibition in experiment [1] was -4.41%; in experiment [2] it was 1.3%; in experiment [3] it was 1.59%; in experiment [4], -3.27%; in experiment [5] it was -2.45%.

In the case of `COc1ccc(CNc2nc3c(S(=O)(=O)c4ccc(Cl)cc4)nnn3c3ccccc23)cc1`, the activity change, negative = inhibition was -4.09% in experiment [1]; 2.84% in experiment [2]; -4.54% in experiment [3]; -5.97% in experiment [4]; -7.29% in experiment [5].

With `O=C(C1CCCC1)N1C[C@@H](COc2ccncc2)[C@H](c2ccccn2)C1`, the activity change, negative = inhibition in experiment [1] was -3.8%; in experiment [2], -0.984%; in experiment [3], -1.04%; in experiment [4], -8.24%; in experiment [5], -0.565%.

In the case of `COc1ccc(S(=O)(=O)n2cnc3cc(C)c(C)cc32)cc1`, the activity change, negative = inhibition in experiment [1] was 4.09%; in experiment [2], 6.88%; in experiment [3], 12.5%; in experiment [4], -16.9%; in experiment [5], 5.14%.
